Out of some 310,000 compounds screened, about 14,000 (4.5%) showed an effect of 50% or more. The effect is printed as a negative number. Some of the results follow.
Target: human ether-à-go-go-related gene (hERG) potassium channel (human, UniProt Q12809)
Assay: primary screen, population patch clamp on CHO cells stably expressing hERG
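Also: peak tail current of the secondary pulse compared with the same well before compound.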

human ether-à-go-go-related gene (hERG) potassium channel, sequence (Q12809 whole entry, looked up): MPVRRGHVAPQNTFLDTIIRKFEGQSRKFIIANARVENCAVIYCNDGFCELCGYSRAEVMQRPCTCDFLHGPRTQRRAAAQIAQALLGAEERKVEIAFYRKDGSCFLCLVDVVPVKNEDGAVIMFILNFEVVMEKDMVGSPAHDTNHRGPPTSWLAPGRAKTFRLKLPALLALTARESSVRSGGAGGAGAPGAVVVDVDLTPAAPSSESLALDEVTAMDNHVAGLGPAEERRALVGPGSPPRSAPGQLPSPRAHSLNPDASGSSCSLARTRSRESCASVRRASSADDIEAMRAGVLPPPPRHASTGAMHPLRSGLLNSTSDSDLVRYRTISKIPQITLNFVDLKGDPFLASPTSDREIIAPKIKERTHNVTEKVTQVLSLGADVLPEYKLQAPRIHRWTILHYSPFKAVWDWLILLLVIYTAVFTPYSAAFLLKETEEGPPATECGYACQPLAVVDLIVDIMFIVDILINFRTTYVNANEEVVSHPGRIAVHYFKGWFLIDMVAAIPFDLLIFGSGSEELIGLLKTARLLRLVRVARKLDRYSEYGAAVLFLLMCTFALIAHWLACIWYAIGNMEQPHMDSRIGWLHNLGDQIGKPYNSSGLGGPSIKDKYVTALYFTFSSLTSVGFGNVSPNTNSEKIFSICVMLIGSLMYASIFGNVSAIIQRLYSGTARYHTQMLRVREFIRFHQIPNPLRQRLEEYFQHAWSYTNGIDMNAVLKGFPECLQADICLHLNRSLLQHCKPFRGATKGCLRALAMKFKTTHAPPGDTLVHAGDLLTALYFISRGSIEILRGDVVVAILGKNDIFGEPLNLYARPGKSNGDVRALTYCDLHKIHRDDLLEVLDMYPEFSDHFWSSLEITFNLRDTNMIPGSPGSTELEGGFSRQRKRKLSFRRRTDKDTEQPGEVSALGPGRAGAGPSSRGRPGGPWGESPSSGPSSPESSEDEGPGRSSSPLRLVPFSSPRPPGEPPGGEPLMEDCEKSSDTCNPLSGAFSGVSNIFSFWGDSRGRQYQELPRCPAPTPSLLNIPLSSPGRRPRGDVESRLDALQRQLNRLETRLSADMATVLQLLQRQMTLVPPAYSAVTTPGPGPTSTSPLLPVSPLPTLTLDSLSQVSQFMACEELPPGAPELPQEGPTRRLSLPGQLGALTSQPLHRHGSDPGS

Compared with COc1ccccc1C1c2ccc3ccccc3c2Oc2ncn(CCN(C)C)c(=N)c21 (stereo not drawn), Cc1ccc(NC(=O)COC(=O)c2c(-c3ccccc3)noc2C)cc1 is higher in “hERG current change (%, negative = inhibition) at 10uM” value: -61.8% for the first, -6.15% for the second.

Going from CCOC(=O)c1cn(Cc2ccccc2)c(C(=O)OC(C)(C)C)c1O to O=C(CNC(=O)c1ccccc1F)OCc1csc(-c2ccccc2)n1, the “hERG current change (%, negative = inhibition) at 10uM” value rises from -0.516% to 14.6%.

Going from O=S(=O)(Cc1ccccc1)NCc1cccnc1 to O=C(COc1ccc(-c2ccccc2)cc1)N1CCN(S(=O)(=O)Cc2ccccc2)CC1, the “hERG current change (%, negative = inhibition) at 10uM” value falls from -13% to -19.3%.

Going from COc1cc(C(=O)O/N=C2/C=C(C)C(=O)C=C2C)cc(OC)c1OC to COc1cc(CC(=O)OCC(=O)NCC(C)C)cc(OC)c1OC, the “hERG current change (%, negative = inhibition) at 10uM” value rises from 3.71% to 16.8%.

Going from NS(=O)(=O)c1ccc(N=Nc2c(=O)[nH]n3c(=O)c4c([nH]c23)CCCC4)cc1 to COC(=O)c1ccc(N2CCCCC2)c(NS(=O)(=O)c2ccc(C)cc2)c1, the “hERG current change (%, negative = inhibition) at 10uM” value falls from 12.7% to -17%.

Going from Cc1ccccc1N(CC(=O)N/N=C/c1cc(C)n(-c2ccccc2C)c1C)S(C)(=O)=O to CN1CCC(=NNC(=O)CN(c2cccc([N+](=O)[O-])c2)S(=O)(=O)c2ccccc2)CC1, the “hERG current change (%, negative = inhibition) at 10uM” value falls from 13.4% to 7.36%.

First: Cc1ccc(CNC(=O)COC(=O)c2cccc(S(=O)(=O)N3CCCCC3)c2)cc1
Second: Cc1cccc(CCNC(=O)c2cc(S(=O)(=O)N3CCCC3)cn2C)c1
The “hERG current change (%, negative = inhibition) at 10uM” value of the first is lower: -23.5% for the first, -4.2% for the second.

Compared with Cc1ccccc1NC(=O)COC(=O)C1(C)CC1(Cl)Cl (stereo not drawn), Cc1ccc(NC(=O)c2cccs2)cc1NC(=O)c1cccnc1 is higher in “hERG current change (%, negative = inhibition) at 10uM” value: 21.2% for the first, 33.1% for the second.

First: CSc1ccc(CN(C)CC(=O)Nc2c(F)cccc2F)cc1.O=C(O)C(=O)O
Second: O=C(CN(Cc1ccc(F)cc1)C(=O)c1csnn1)NC1CCCC1
The “hERG current change (%, negative = inhibition) at 10uM” value of the first is lower: -8.03% for the first, 3.86% for the second.

First: Cc1nnc(NC(=O)C(c2ccccc2)c2ccccc2)s1
Second: CC(=O)c1cccc(NC(=O)c2nc(-c3ccccc3)oc2C)c1
The “hERG current change (%, negative = inhibition) at 10uM” value of the first is higher: 5.66% for the first, -6.99% for the second.

First: CCCCn1c(=NC(=O)c2ccc3c(c2)OCO3)c(C#N)cc2c(=O)n3cccc(C)c3nc21
Second: CCN(C(=O)CSc1nc2n[nH]c(C)c2c(=N)n1-c1ccc(Cl)c(C)c1)c1cccc(C)c1
The “hERG current change (%, negative = inhibition) at 10uM” value of the first is lower: -5.68% for the first, 8.36% for the second.

Going from COc1ccc(NC(=O)C(=O)NCCCO)cc1Cl to COc1ccc(/C=C(\C#N)C(=O)NCC2CCCO2)cc1OC (stereo not drawn), the “hERG current change (%, negative = inhibition) at 10uM” value falls from 9.95% to 0.277%.

Going from COc1ccc(NC(=O)C(Cc2ccccc2)n2cccc2)cc1OC (stereo not drawn) to COc1ccc(/C(N)=N/OC(=O)c2cccs2)cc1OC, the “hERG current change (%, negative = inhibition) at 10uM” value rises from -7.21% to 2.74%.

Compared with C=CCn1c(SCC(=O)Nc2cc(C)on2)nc2sc(CC)cc2c1=O, COc1ccc(N2CCN(Cc3nc4c(c(=O)n(C)c(=O)n4C)n3CC(C)=O)CC2)cc1 is lower in “hERG current change (%, negative = inhibition) at 10uM” value: 1.3% for the first, -7.01% for the second.

First: C=CCc1cccc2cc(C(=O)NC3CCCC3)c(=O)oc12
Second: COc1cccc2cc(C(=O)N3CC(C)OC(C)C3)c(=O)oc12 (stereo not drawn)
The “hERG current change (%, negative = inhibition) at 10uM” value of the first is lower: -0.443% for the first, 9.7% for the second.

Going from COc1ccccc1CN1CC(C(=O)NCCCc2ccc(F)cc2)CCC1=O (stereo not drawn) to CC(=O)c1cccc(NC(=O)C2CCCN(S(=O)(=O)c3ccccc3)C2)c1 (stereo not drawn), the “hERG current change (%, negative = inhibition) at 10uM” value rises from -41% to -26.8%.

First: O=C(Cn1cnc2ccccc21)c1ccc(Cl)cc1
Second: CN1C(=O)C2(N=c3ccccc3=N2)c2ccccc21
The “hERG current change (%, negative = inhibition) at 10uM” value of the first is higher: 1.77% for the first, -17.8% for the second.

First: COC(=O)CCc1ccc(O)cc1
Second: CCCN(CCO)Cc1ccc(Br)cc1
The “hERG current change (%, negative = inhibition) at 10uM” value of the first is higher: 7% for the first, -6.08% for the second.

First: CC1=CC(C)C2(CO)COC(c3cccnc3)C1C2C (stereo not drawn)
Second: CC1Cc2ccccc2N1C(=O)CCN1C(=O)C2C3C=CC(C3)C2C1=O (stereo not drawn)
The “hERG current change (%, negative = inhibition) at 10uM” value of the first is lower: -9.23% for the first, 2.41% for the second.

First: CCOc1ccc(N2CC(C(=O)N/N=C/c3sccc3C)CC2=O)cc1 (stereo not drawn)
Second: COc1ccc(OCCC(=O)OCC(=O)NCCC2=CCCCC2)cc1
The “hERG current change (%, negative = inhibition) at 10uM” value of the first is lower: -16.6% for the first, 10.9% for the second.

Compared with Cc1cnc(NC(=O)Cc2cccs2)s1, Cc1csc(NC(=O)c2cc(-c3ccco3)nc3ccccc23)n1 is lower in “hERG current change (%, negative = inhibition) at 10uM” value: 23.1% for the first, -10.8% for the second.

Compared with Cc1ccc(S(=O)(=O)n2nc(C)c(C#N)c2N)cc1, O=C(/C=C/N1CCOCC1)c1cc2ccccc2o1 is higher in “hERG current change (%, negative = inhibition) at 10uM” value: -1.64% for the first, 1.21% for the second.

In the case of O=P([O-])(CN1CCCCCC1)C1Cc2ccccc2C1, the “hERG current change (%, negative = inhibition) at 10uM” value is reported as 19%.
